Numbering of substitutions follows the chain as printed; changes in the protein carry UniProt numbers. The list shows a part of the results.

First the molecules themselves.
T1: RBFOX1 RRM (Homo sapiens, UniProt Q9NWB1 109-208)
T1 sequence: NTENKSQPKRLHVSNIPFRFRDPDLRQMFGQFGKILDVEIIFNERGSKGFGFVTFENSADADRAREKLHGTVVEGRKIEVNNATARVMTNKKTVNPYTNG

B1: ACAUCGA (DNA:RNA)
RNA: GGGAGACCGGAAUUCAGAUUGUCCACAUCGAUUAAAUCCCGUCGUAGCCACCA
DNA 1: CAATCTGAATTCCGGTCTCCC
DNA 2: TGGTGGCTACGACGGGATT
B2: GGUACGG (DNA:RNA)
RNA: B1 RNA with A25G, C26G, A27U, U28A, A31G
DNA 1: CAATCTGAATTCCGGTCTCCC
DNA 2: TGGTGGCTACGACGGGATT
B3: GGGCUGU (DNA:RNA)
RNA: B1 RNA with A25G, C26G, A27G, U28C, C29U, A31U
DNA 1: CAATCTGAATTCCGGTCTCCC
DNA 2: TGGTGGCTACGACGGGATT
B4: UCGGACG (DNA:RNA)
RNA: B1 RNA with A25U, A27G, U28G, C29A, G30C, A31G
DNA 1: CAATCTGAATTCCGGTCTCCC
DNA 2: TGGTGGCTACGACGGGATT
B5: AGGUUUG (DNA:RNA)
RNA: B1 RNA with C26G, A27G, C29U, G30U, A31G
DNA 1: CAATCTGAATTCCGGTCTCCC
DNA 2: TGGTGGCTACGACGGGATT
B6: CACUAUA (DNA:RNA)
RNA: B1 RNA with A25C, C26A, A27C, C29A, G30U
DNA 1: CAATCTGAATTCCGGTCTCCC
DNA 2: TGGTGGCTACGACGGGATT
B7: CUGACAG (DNA:RNA)
RNA: B1 RNA with A25C, C26U, A27G, U28A, G30A, A31G
DNA 1: CAATCTGAATTCCGGTCTCCC
DNA 2: TGGTGGCTACGACGGGATT
B8: CUAGCGG (DNA:RNA)
RNA: B1 RNA with A25C, C26U, U28G, A31G
DNA 1: CAATCTGAATTCCGGTCTCCC
DNA 2: TGGTGGCTACGACGGGATT
B9: CAAUAAG (DNA:RNA)
RNA: B1 RNA with A25C, C26A, C29A, G30A, A31G
DNA 1: CAATCTGAATTCCGGTCTCCC
DNA 2: TGGTGGCTACGACGGGATT
B10: GACCGUA (DNA:RNA)
RNA: B1 RNA with A25G, C26A, A27C, U28C, C29G, G30U
DNA 1: CAATCTGAATTCCGGTCTCCC
DNA 2: TGGTGGCTACGACGGGATT
B11: CACGUGA (DNA:RNA)
RNA: B1 RNA with A25C, C26A, A27C, U28G, C29U
DNA 1: CAATCTGAATTCCGGTCTCCC
DNA 2: TGGTGGCTACGACGGGATT
B12: UAAGUAC (DNA:RNA)
RNA: B1 RNA with A25U, C26A, U28G, C29U, G30A, A31C
DNA 1: CAATCTGAATTCCGGTCTCCC
DNA 2: TGGTGGCTACGACGGGATT
B13: AGCUCUA (DNA:RNA)
RNA: B1 RNA with C26G, A27C, G30U
DNA 1: CAATCTGAATTCCGGTCTCCC
DNA 2: TGGTGGCTACGACGGGATT
B14: GAAGAAU (DNA:RNA)
RNA: B1 RNA with A25G, C26A, U28G, C29A, G30A, A31U
DNA 1: CAATCTGAATTCCGGTCTCCC
DNA 2: TGGTGGCTACGACGGGATT
B15: UUAUGAU (DNA:RNA)
RNA: B1 RNA with A25U, C26U, C29G, G30A, A31U
DNA 1: CAATCTGAATTCCGGTCTCCC
DNA 2: TGGTGGCTACGACGGGATT
B16: UUGAUGU (DNA:RNA)
RNA: B1 RNA with A25U, C26U, A27G, U28A, C29U, A31U
DNA 1: CAATCTGAATTCCGGTCTCCC
DNA 2: TGGTGGCTACGACGGGATT
B17: AAGGAGA (DNA:RNA)
RNA: B1 RNA with C26A, A27G, U28G, C29A
DNA 1: CAATCTGAATTCCGGTCTCCC
DNA 2: TGGTGGCTACGACGGGATT
B18: UACGGCG (DNA:RNA)
RNA: GGGAGACCGGAAUUCAGAUUGUCCUACGGCGUUAAAUCCCGUCGUAGCCACCA
DNA 1: CAATCTGAATTCCGGTCTCCC
DNA 2: TGGTGGCTACGACGGGATT
B19: GCAUUCC (DNA:RNA)
RNA: B1 RNA with A25G, C29U, G30C, A31C
DNA 1: CAATCTGAATTCCGGTCTCCC
DNA 2: TGGTGGCTACGACGGGATT
B20: GCAUGAC (DNA:RNA)
RNA: B1 RNA with A25G, C29G, G30A, A31C
DNA 1: CAATCTGAATTCCGGTCTCCC
DNA 2: TGGTGGCTACGACGGGATT
B21: GGCGAGG (DNA:RNA)
RNA: B18 RNA with U25G, A26G, G29A, C30G
DNA 1: CAATCTGAATTCCGGTCTCCC
DNA 2: TGGTGGCTACGACGGGATT
B22: AGGUUUC (DNA:RNA)
RNA: B1 RNA with C26G, A27G, C29U, G30U, A31C
DNA 1: CAATCTGAATTCCGGTCTCCC
DNA 2: TGGTGGCTACGACGGGATT
B23: UCACCAC (DNA:RNA)
RNA: B1 RNA with A25U, U28C, G30A, A31C
DNA 1: CAATCTGAATTCCGGTCTCCC
DNA 2: TGGTGGCTACGACGGGATT
B24: GGUAGUU (DNA:RNA)
RNA: B18 RNA with U25G, A26G, C27U, G28A, C30U, G31U
DNA 1: CAATCTGAATTCCGGTCTCCC
DNA 2: TGGTGGCTACGACGGGATT
B25: CCCUGGU (DNA:RNA)
RNA: B1 RNA with A25C, A27C, C29G, A31U
DNA 1: CAATCTGAATTCCGGTCTCCC
DNA 2: TGGTGGCTACGACGGGATT
B26: UACACAA (DNA:RNA)
RNA: B18 RNA with G28A, G29C, C30A, G31A
DNA 1: CAATCTGAATTCCGGTCTCCC
DNA 2: TGGTGGCTACGACGGGATT
B27: UCCGCCC (DNA:RNA)
RNA: B18 RNA with A26C, G29C, G31C
DNA 1: CAATCTGAATTCCGGTCTCCC
DNA 2: TGGTGGCTACGACGGGATT
B28: GGCAUAC (DNA:RNA)
RNA: B18 RNA with U25G, A26G, G28A, G29U, C30A, G31C
DNA 1: CAATCTGAATTCCGGTCTCCC
DNA 2: TGGTGGCTACGACGGGATT
B29: GAGUGCG (DNA:RNA)
RNA: B18 RNA with U25G, C27G, G28U
DNA 1: CAATCTGAATTCCGGTCTCCC
DNA 2: TGGTGGCTACGACGGGATT
B30: UGAACCG (DNA:RNA)
RNA: B18 RNA with A26G, C27A, G28A, G29C
DNA 1: CAATCTGAATTCCGGTCTCCC
DNA 2: TGGTGGCTACGACGGGATT
B31: CGCGCAC (DNA:RNA)
RNA: B18 RNA with U25C, A26G, G29C, C30A, G31C
DNA 1: CAATCTGAATTCCGGTCTCCC
DNA 2: TGGTGGCTACGACGGGATT

This assay concerns the target T1, RBFOX1 RRM. In words: EMSA; HiTS-Eq, 1 nM pool, 10 min; buffer printed only for the single-RNA assays: 10 mM Tris pH 7.5, 150 mM NaCl, 3.4 mM EDTA, 0.001% NP-40, 30 C. To be noted: tags: His6 N-terminal (pET28a); label: 5' 32P. An outline of the steps: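 These values rest on relative association constants, computed from read-count changes of each RNA species versus the control reaction and normalised to the cognate motif. Reads came from free RNA recovered by 8% native PAGE after purified RbFox RRM (wild type or mutant) at increasing concentrations was equilibrated for 10 min in 50 µL with 1 nM of a 5′-radiolabelled pool with 7 randomized nucleotides and DNA-annealed flanks.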
Consider B1, for which the binding signal was 0.00224 KA relative to UGCAUGU.

As to B2, the binding signal is 0.00424 KA relative to UGCAUGU.

Regarding B3, the binding signal was 0.0234 KA relative to UGCAUGU.

Regarding B4, the binding signal was 0.0078 KA relative to UGCAUGU.

B5: the binding signal is 0.0194 KA relative to UGCAUGU.

With B6, the binding signal is 0.00179 KA relative to UGCAUGU.

Take B7: the binding signal was 0.0131 KA relative to UGCAUGU.

As for B8, the binding signal was 0.00506 KA relative to UGCAUGU.

Turning to B9, the binding signal is 0.00824 KA relative to UGCAUGU.

As to B10, the binding signal was 0.00492 KA relative to UGCAUGU.

Turning to B11, the binding signal was 0.0101 KA relative to UGCAUGU.

On to B12, for which the binding signal is 0.0139 KA relative to UGCAUGU.

In the case of B13, the binding signal is 0.00481 KA relative to UGCAUGU.

In the case of B14, the binding signal was 0.0101 KA relative to UGCAUGU.

Take B15: the binding signal is 0.0155 KA relative to UGCAUGU.

Consider B16, for which the binding signal was 0.0178 KA relative to UGCAUGU.

Consider B17, for which the binding signal is 0.00618 KA relative to UGCAUGU.

In the case of B18, the binding signal is 0.0116 KA relative to UGCAUGU.

Consider B19, for which the binding signal is 0.00945 KA relative to UGCAUGU.

B20: the binding signal was 0.599 KA relative to UGCAUGU.

Take B21: the binding signal is 0.0203 KA relative to UGCAUGU.

With B22, the binding signal is 0.0155 KA relative to UGCAUGU.

As to B23, the binding signal was 0.000265 KA relative to UGCAUGU.

Consider B24, for which the binding signal was 0.00811 KA relative to UGCAUGU.

As for B25, the binding signal is 0.015 KA relative to UGCAUGU.

On to B26, for which the binding signal was 0.00283 KA relative to UGCAUGU.

In the case of B27, the binding signal was 0.00894 KA relative to UGCAUGU.

Take B28: the binding signal was 0.00783 KA relative to UGCAUGU.

As for B29, the binding signal is 0.0156 KA relative to UGCAUGU.

Turning to B30, the binding signal is 0.0108 KA relative to UGCAUGU.

For the molecule B31, the binding signal was 0.0123 KA relative to UGCAUGU.

Values taken from PMC9911399, “Two distinct binding modes provide the RNA-binding protein RbFox with extraordinary sequence specificity”.
